Results taken from PubChem BioAssay AID624171 (National Center for Advancing Translational Sciences (NCATS), 2012).
Values joined by “and” are separate entries in the source; they are usually repeats but may differ in a detail not shown here. Equal values may be shown once. Screen size: about 410,000 compounds; about 1,200 (0.29%) were called active. Inconclusive means that the source gave no clear call. Such entries were picked first, then a sample of the others. The call rests on the fitted dose curve; in most records, active means well fitted activation curve with a large enough effect; inconclusive means small, poorly fitted or top-dose-only effect; inactive means flat fitted curve, though single readings scatter. Potencies of inconclusive entries are doubtful fits and often do not repeat.
Potency means the concentration at half of the fitted maximal effect; tags describe the fitted curve by direction and shape.

Assay: qHTS of Nrf2 Activators; further: nearly all actives have a fitted effect of over 65% in size; on activation: % of control where 0% means no effect
Conditions: AREc32 ARE-luciferase reporter (MCF7-derived line), luminescence, 24 h; activation: at 46.1 µM (top of the series)
Procedure, shortened: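 For detection, Steady-Glo was added and plates sat 30 min at RT; before that, AREc32_Fluc cells grown overnight in OPTI-MEM/5% FBS had been treated with 23 nL compound for 24 hr at 37 deg C.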
In the case of `O=C1C(=Cc2ccc(Cl)cc2)CCc2ccccc21`, the Potency is reported as inconclusive: 15.8 µM [activator, single point].
With `C/C(=N\N=C1/NC(=O)C(C)S1)c1ccco1` (configuration not stated) the Potency was inconclusive: 15.8 µM [activator, single point].
In the case of `CCN1C(=O)[C@@H]2Cc3c([nH]c4ccccc34)C(c3ccc(OC)cc3)N2C1=S` (some centres not stated), the “activation” value is reported as inactive: 7.57%.
With `CC(C)Cn1c(C(C)C)nc([N+](=O)[O-])c1S(=O)(=O)c1ccc(F)cc1` the Potency was active: 22.4 µM.
In the case of `Cc1ccc(C(=O)Nc2ccc(CC(=O)O)cc2)o1`, the “activation” value is reported as inactive: -0.845%.
For `Cn1c(N/N=C/c2cccs2)cc(=O)n(C)c1=O`, the Potency was active: 7.94 µM.
With `Cc1ccc(SC(CC(=O)c2ccc(F)cc2)C(=O)O)cc1` (configuration not stated) the Potency was inconclusive: 20 µM [activator, single point].
In the case of `Cc1nc(NC(=O)c2ccc(Br)o2)ccc1Br`, the Potency is reported as inconclusive: 7.08 µM [activator, partial curve, poor fit].
In the case of `COCCOc1ccc(C(F)(F)F)cc1NC(=O)c1ccc(C(F)(F)F)cc1`, the Potency is reported as inconclusive: 3.55 µM [activator, single point].
In the case of `Cc1cc(C)n2ncc(C(=O)NC3CCCCC3)c2n1`, the Potency is reported as inconclusive: 12.6 µM [activator, partial curve, poor fit].
For `O=C(NNC(=O)c1csc(N2CCOCC2)n1)c1ccc(=O)[nH]c1`, the “activation” value was inactive: -0.558%.
In the case of `COc1ccc2oc(C(=O)OCC(=O)NC(=O)NC(C)C)c(C)c2c1`, the “activation” value is reported as inactive: -0.201%.
In the case of `CCCCNC(=O)COC(=O)CNC(=O)c1cc(Cl)cc([N+](=O)[O-])c1`, the “activation” value is reported as inactive: -0.629%.
For `CC(=O)c1cccc(NC(=O)c2cc3sc(Cl)cc3n2C)c1`, the “activation” value was inactive: 3.91%.
With `CCC1CCCCN1C(=O)c1ccc([N+](=O)[O-])o1` (configuration not stated) the Potency was active: 20 µM.
For `COc1ccc(/C=C/C(=O)c2ccccc2)c(OC)c1`, the Potency was inconclusive: 31.6 µM [activator, single point].
In the case of `Clc1ncnc2scc(-c3ccccc3)c12`, the Potency is reported as inconclusive: 20 µM [activator, single point].
In the case of `COc1ccccc1N=Nc1ccc(O)c2ncccc12`, the Potency is reported as inconclusive: 3.16 µM [activator, single point].
For `Cc1ccsc1C(=O)OCc1cc(=O)n2ccsc2n1`, the “activation” value was inactive: -0.0767%.
For `COc1ccc(-c2nc3ccccc3s2)cc1NC(=O)c1cccc(F)c1`, the “activation” value was inactive: 12.2%.
For `COc1ccc(CC(=O)Nc2ccc(-c3ccc4nnc(C)n4n3)cc2)cc1OC`, the Potency was inconclusive: 17.8 µM [activator, single point].
In the case of `COc1cc(-c2nc3ccccc3s2)ccc1O`, the Potency is reported as active: 6.31 µM.
With `Cc1ccc(S(=O)(=O)Nc2ccccc2N=Cc2ccc([N+](=O)[O-])cc2[N+](=O)[O-])cc1` the Potency was active: 14.1 µM.
In the case of `N#Cc1cc(C(=O)c2ccccc2O)cn(-c2nccs2)c1=O`, the Potency is reported as active: 22.4 µM.
For `Cn1c(=O)c2c(nc(CN3CCc4ccccc4C3)n2Cc2ccc(Cl)cc2)n(C)c1=O`, the “activation” value was inactive: -1.16%.
In the case of `Cc1ccc2ncc(C(=O)c3ccc(C)c(C)c3)c(S(=O)(=O)c3ccccc3)c2c1`, the Potency is reported as inconclusive: 14.1 µM [activator, single point].
In the case of `CC(=O)NCCNc1nc2cc(-c3cscc3C)sc2c(=O)n1C`, the Potency is reported as inconclusive: 2.24 µM [activator, full curve, poor fit].
In the case of `O=C(Nc1ccc(Cl)cc1)c1ccsn1`, the Potency is reported as active: 11.2 µM.
For `COC(CN(C(=O)CCl)C(C(=O)NC1CCCCC1)c1ccccc1C)OC` (configuration not stated), the Potency was inconclusive: 10 µM [activator, partial curve].
In the case of `O=C(c1ccco1)c1cn[nH]c1-c1ccc(Cl)cc1O`, the Potency is reported as inconclusive: 11.2 µM [activator, partial curve].
For `Cc1cc(C)c2oc(-c3cccc(N)c3)nc2c1`, the Potency was inconclusive: 14.1 µM [activator, partial curve, poor fit].
In the case of `S=c1sc2ccccc2n1CCc1ccncc1`, the Potency is reported as inconclusive: 15.8 µM [activator, single point].
With `Cc1ccc(-c2noc(-c3ccccc3F)n2)cc1` the Potency was inconclusive: 4.47 µM [activator, full curve].
For `CCOC(=O)c1c(-c2ccco2)csc1NC(=O)COC(=O)c1cnc(C)cn1`, the Potency was inconclusive: 11.2 µM [activator, partial curve, poor fit].
For `Cc1cc(C(=O)CCl)c(C)n1CC1COc2ccccc2O1` (configuration not stated), the Potency was inconclusive: 35.5 µM [activator, single point].
For `CCN1CCN(C2=C(Cl)C(=O)N(Cc3ccccc3)C2=O)CC1`, the Potency was inconclusive: 14.1 µM [activator, single point].
In the case of `CC(=O)OCC1(O)CC23CCC4c5ccoc5CCC4(C)C2CCC1C3` (configuration not stated), the Potency is reported as inconclusive: 22.4 µM [activator, single point].
In the case of `Cc1ccc2nc(-c3c[nH]c4ccccc34)c(Nc3ccccc3C)n2c1`, the Potency is reported as inconclusive: 15.8 µM [activator, partial curve, poor fit].
For `Cc1cc(-c2nnc(-c3cccc(Cl)c3)o2)no1`, the Potency was inconclusive: 12.6 µM [activator, single point].
In the case of `COC(=O)Cn1cc(C(=O)c2ccco2)c2ccccc21`, the Potency is reported as inconclusive: 15.8 µM [activator, single point].
With `Cc1ccc(/C=C/C(=O)Nc2ccc(S(N)(=O)=O)cc2)o1` the Potency was inconclusive: 15.8 µM [activator, partial curve, poor fit] and inconclusive: 12.6 µM [activator, partial curve, poor fit].
With `Cc1ccc(S(=O)(=O)N2CCOC2CNC(=O)C(=O)NCc2ccc(Cl)cc2)cc1` (configuration not stated) the “activation” value was inactive: 2.96%.
With `COc1ccccc1CC1S/C(=N/N=C/c2ccco2)NC1=O` (configuration not stated) the Potency was inconclusive: 3.16 µM [activator, partial curve, poor fit].
For `COc1ccc(-c2nn(-c3ccccc3)cc2/C=C/C(=O)O)cc1[N+](=O)[O-]`, the Potency was inconclusive: 15.8 µM [activator, single point].
For `Cc1nnc(N2C(=O)C(O)=C(C(=O)c3ccco3)C2c2cccc3ccccc23)s1` (configuration not stated), the Potency was inconclusive: 20 µM [activator, partial curve, poor fit].
For `OCCCNCc1cccc2ccccc12`, the “activation” value was inactive: -0.649%.
For `Cc1ccc(OCC(=O)N/N=C/C=C/c2ccco2)cc1C`, the Potency was inconclusive: 28.2 µM [activator, single point].
In the case of `CCCOC(=O)/C(=C\C=C\c1ccco1)NC(=O)c1ccccc1`, the Potency is reported as active: 12.6 µM.
In the case of `CCS(=O)(=O)c1nc(S(=O)(=O)c2ccc(Cl)cc2)c(N2CCC(O)CC2)s1`, the Potency is reported as inconclusive: 11.2 µM [activator, partial curve, poor fit].
For `Oc1ccc(Cl)cc1Nc1nc(NCC2CCCO2)c2ccccc2n1` (configuration not stated), the Potency was inconclusive: 10 µM [activator, partial curve].
In the case of `O=C(Nc1ccc2nsnc2c1)c1cccs1`, the Potency is reported as active: 8.91 µM.
With `Oc1ccccc1C=NN=C1c2ccccc2-c2ccccc21` the Potency was inconclusive: 3.98 µM [activator, full curve].
In the case of `COC(=O)c1sccc1NC(=O)CCC1CCCC1`, the Potency is reported as inconclusive: 20 µM [activator, single point].
For `CC(C)(C)C1CCc2sc(C(=O)NNC(=O)CCl)cc2C1` (configuration not stated), the Potency was inconclusive: 31.6 µM [activator, single point].
With `O=C(NC1CCN(Cc2ccc(Cl)cc2Cl)CC1)c1ccccc1` the “activation” value was inactive: -0.438%.
With `COc1ccc(-n2nnnc2SCc2nc3ccccc3s2)cc1` the Potency was inconclusive: 10 µM [activator, partial curve].
In the case of `Cc1ccc(Sc2ccc([N+](=O)[O-])cc2[N+](=O)[O-])nc1`, the Potency is reported as active: 15.8 µM.
For `CN(c1ccccc1)S(=O)(=O)c1cccc(C(=O)OCC(=O)NCc2ccco2)c1`, the Potency was inconclusive: 25.1 µM [activator, single point].
With `CCC(C)Nc1nc(N)c([N+](=O)[O-])c(Nc2ccccc2OC)n1` (configuration not stated) the “activation” value was inactive: 5.12%.
With `CC(=O)c1c(C)[nH]c(C(=O)COC(=O)CCOc2ccc(C)cc2)c1C` the Potency was inconclusive: 35.5 µM [activator, single point].
For `COc1ccc(C)cc1NC(=O)COCc1cc(-c2cccs2)on1`, the Potency was inconclusive: 7.08 µM [activator, partial curve].
For `Cc1ccc(N(C)C(=O)Cn2cnc3onc(-c4ccc(F)cc4)c3c2=O)cc1C`, the “activation” value was inactive: 0.352%.
With `O=C(Cc1ccccc1)N/N=C/c1ccccn1` the Potency was inconclusive: 31.6 µM [activator, single point].
For `Oc1c(Br)cc(Br)cc1/C=N/c1nccs1`, the Potency was inconclusive: 22.4 µM [activator, single point].
In the case of `O=C(C=Cc1cccs1)c1cccs1`, the Potency is reported as active: 22.4 µM.
In the case of `C=C1C(=O)CC2=C1[C@](Cc1ccc(F)cc1)(C(=O)OC)N(C(=O)c1ccccc1)C2`, the Potency is reported as inconclusive: 20 µM [activator, single point].
For `Cc1ccc(-c2nnc(-c3cccs3)o2)cc1`, the Potency was inconclusive: 12.6 µM [activator, partial curve, poor fit].
For `O=C(Nc1ccccc1C(=O)NC1CC1)c1ccc([N+](=O)[O-])o1`, the Potency was inconclusive: 5.62 µM [activator, single point].
In the case of `Cn1c(CCN2CCCCC2)nc2cc(NS(=O)(=O)c3ccccc3)ccc21`, the Potency is reported as inconclusive: 22.4 µM [activator, single point].
In the case of `O=C(O)CCn1cc(/C=C\C(=O)c2ccc(Cl)cc2)c(-c2cccc(Br)c2)n1`, the Potency is reported as inconclusive: 31.6 µM [activator, single point].
In the case of `O=C1CN(C(=O)COC(=O)c2c(F)cccc2Cl)c2ccccc2N1`, the Potency is reported as inconclusive: 12.6 µM [activator, single point].
With `Cc1nc2sc3c(O)cc(=O)[nH]c3c2c(C)c1C` the “activation” value was inactive: -0.948%.
